# Laboratory results reported in PMC4336329 (PLoS ONE, 2015).
# In all, about 310,000 compounds went through this assay and about 2,200 (0.71%) showed an effect of 50% or more. Effects have a minus sign here. The list shows a part of the results.
# Target: human ether-à-go-go-related gene (hERG) potassium channel (human, UniProt Q12809)
# Assay: primary screen, population patch clamp on CHO cells stably expressing hERG
# Chain of human ether-à-go-go-related gene (hERG) potassium channel (Q12809 whole entry, looked up): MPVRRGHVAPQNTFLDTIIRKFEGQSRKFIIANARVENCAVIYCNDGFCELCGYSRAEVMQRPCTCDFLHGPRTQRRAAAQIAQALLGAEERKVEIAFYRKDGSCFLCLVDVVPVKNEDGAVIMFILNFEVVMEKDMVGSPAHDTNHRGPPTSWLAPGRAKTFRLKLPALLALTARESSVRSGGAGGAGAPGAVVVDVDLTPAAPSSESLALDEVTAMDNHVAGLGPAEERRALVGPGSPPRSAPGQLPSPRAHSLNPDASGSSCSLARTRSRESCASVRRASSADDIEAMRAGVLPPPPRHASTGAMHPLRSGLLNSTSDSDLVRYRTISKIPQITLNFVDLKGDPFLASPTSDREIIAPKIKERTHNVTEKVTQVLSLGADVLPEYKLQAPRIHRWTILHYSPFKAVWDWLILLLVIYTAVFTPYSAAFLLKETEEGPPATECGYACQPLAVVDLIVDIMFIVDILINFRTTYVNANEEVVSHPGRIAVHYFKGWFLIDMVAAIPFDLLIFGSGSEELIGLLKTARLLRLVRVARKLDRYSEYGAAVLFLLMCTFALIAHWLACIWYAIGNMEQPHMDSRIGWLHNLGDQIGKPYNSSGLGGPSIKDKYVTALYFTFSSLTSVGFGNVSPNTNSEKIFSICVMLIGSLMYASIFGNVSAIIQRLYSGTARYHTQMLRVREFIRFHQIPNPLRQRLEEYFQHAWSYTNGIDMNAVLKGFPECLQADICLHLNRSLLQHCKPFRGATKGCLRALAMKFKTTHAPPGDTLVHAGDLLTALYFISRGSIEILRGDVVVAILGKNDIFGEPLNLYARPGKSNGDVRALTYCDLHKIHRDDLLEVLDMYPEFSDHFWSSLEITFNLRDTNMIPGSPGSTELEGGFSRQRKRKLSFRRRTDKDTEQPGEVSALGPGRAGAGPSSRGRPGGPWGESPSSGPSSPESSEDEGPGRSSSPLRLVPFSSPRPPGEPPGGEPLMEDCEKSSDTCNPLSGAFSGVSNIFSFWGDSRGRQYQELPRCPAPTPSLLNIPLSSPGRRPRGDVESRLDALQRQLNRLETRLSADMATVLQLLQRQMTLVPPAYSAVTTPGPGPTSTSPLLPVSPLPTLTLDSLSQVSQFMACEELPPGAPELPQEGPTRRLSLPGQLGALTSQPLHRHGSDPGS
row,SMILES,"hERG current change (%, negative = inhibition) at 1uM"
1,CC(CN1CCCCC1)NC(=O)c1cccs1 (centres unmarked),9.63%
2,CCN(CC)CCNC(=O)c1ccc(NC(=O)c2ccc(S(=O)(=O)N3CCCCCC3)cc2)cc1,13.3%
3,O=C(N/N=C(\Cc1ncc[nH]1)c1ccccc1)c1ccncc1,6.55%
4,CSc1ccc(/C=N/NC(=O)c2cccc(Cl)c2)cc1,0.0835%
5,COc1ccc(C)cc1NC(=O)CCCN1C(=O)NC(C)(C)C1=O,5.46%
6,O=C1CC(NS(=O)(=O)c2ccccc2)CN1c1ccc2c(c1)OCCO2 (centres unmarked),5.04%
7,COc1ccc(C)cc1N(CC(=O)Nc1cccnc1)S(=O)(=O)c1ccc(C)cc1,10.3%
8,CCCCCCCC(=O)OCC(O)CO (centres unmarked),9.65%
9,CCN(CC)C(=S)SCC(=O)c1c(C)[nH]c2ccccc12,2.79%
10,Cl.O=C(c1ccc(Cl)c(S(=O)(=O)N2CCCC2)c1)N1CCN(c2ccc(F)cc2)CC1,-4.95%
11,CSc1ccccc1C(=O)NCc1ccc(C)cc1,9.27%
12,COc1cc(OC)c(C(=O)OCN2C(=O)c3ccccc3C2=O)cc1OC,-10.6%
13,CC(=O)Nc1ccc(S(=O)(=O)NCC(=O)OCc2ccccc2)cc1,15.4%
14,Cn1c(NCCO)nc2c1c(=O)n(Cc1ccc(F)cc1)c(=O)n2C,9%
15,CC(C)CCNC(=O)C(=O)Nc1ccc2c(c1)N(S(=O)(=O)c1cccs1)CCC2,17.1%
16,CCc1c(C(=O)O)[nH]c2ccc(Br)cc12,5.08%
17,c1ccc(COc2ccc(CNn3cnnc3)cc2)cc1,15.3%
18,O=C1c2cccc3cccc(c23)C(=O)N1CCCc1n[nH]c(=S)n1-c1ccccc1,16.2%
19,COc1ccc(NCN2C(=O)C3C4C=CC(C4)C3C2=O)cc1 (centres unmarked),13.6%

row,SMILES,"hERG current change (%, negative = inhibition) at 1uM"
1,O=c1ccc(/C=C/c2ccccc2)nn1Cc1ccccc1Cl,5.58%
2,COc1cccc(Nc2ncccc2C(=O)O)c1,10.8%
3,COc1cc(OC)c(/C=N/n2c(C3CCCCC3)n[nH]c2=S)c(OC)c1,6.28%
4,CC(NC(=O)CCC(=O)c1ccc(F)cc1)C1CC2CCC1C2 (centres unmarked),5.64%
5,O=C(COc1ccc2c(c1)CCC2)N1CCc2ccccc21,8.08%
6,CNc1c(C(=O)O)ccc2c1C(=O)c1ccccc1C2=O,4.93%
7,CCOc1ccc(S(=O)(=O)Nc2cc(C)ccn2)c2ccccc12,7.64%
8,CC(NC(=O)CNC(=O)Cc1cccc2ccccc12)c1ccc(S(N)(=O)=O)cc1 (centres unmarked),8.87%
9,COc1ccc(/C(O)=C2/C(=O)C(=O)N(CCN(C)C)C2c2ccccc2)cc1Cl (centres unmarked),9.27%
10,N#Cc1ccccc1NC(=O)C(=O)NCCCN1CCCC1=O,2.74%
11,Cn1ncc(C#N)c1/N=C/N(Cc1ccccc1)Cc1ccccc1,-4.89%
12,CCCc1cc(=O)[nH]c(SCCCCN2C(=O)c3ccccc3C2=O)n1,7.6%
13,COc1ccc(NC(=O)CN(C)C(=O)c2c(C)nn(-c3ccccc3)c2Cl)cc1,16.4%
14,Cc1cccc(Oc2ncnc3oc(-c4ccccc4)cc23)c1C,3.29%
15,Cc1coc2cc3oc(=O)c(CCC(=O)N4CCC(C(=O)O)(c5ccccc5)CC4)c(C)c3cc12,1.45%
16,O=C(Cn1cc(C(F)(F)F)cc(Cl)c1=O)Nc1cc(S(=O)(=O)N2CCOCC2)ccc1Cl,12%
17,CC[C@@H]1CN(C)[C@H]2Cc3c([nH]c4ccccc34)C(=O)C[C@@H]1[C@@H]2C(=O)OC,11.8%
18,COC(=O)[C@]1(Cc2ccccc2)N[C@H](c2ccc(-c3ccccc3)cc2)[C@@H]2C(=O)N(C)C(=O)[C@@H]21.O=C(O)C(F)(F)F,11.1%
19,Cc1cccc(N=c2oc3cc(O)ccc3cc2C(N)=O)c1,4.26%

row,SMILES,"hERG current change (%, negative = inhibition) at 1uM"
1,O=C(NCc1ccccc1F)C1CCCN1S(=O)(=O)c1ccc(Cl)cc1 (centres unmarked),7.77%
2,COc1ccc(C)cc1S(=O)(=O)N(C)CC(=O)NC1CC1,12.8%
3,Nc1c(-c2ccc(Cl)cc2)cnc2c(-c3ccc(F)cc3)cnn12,16.8%
4,Cc1ccccc1OCCCCCn1ccnc1,2.95%
5,O=C1CCC(=O)N1c1nc2n(n1)C(c1ccccc1)C=C(c1ccc(Br)cc1)N2 (centres unmarked),-0.468%
6,CCN(CC)c1nc2c(C)cccn2c(=O)c1C=C1C(=O)NC(=O)NC1=O,14.5%
7,CC(C)(C)n1nc2c(c1NC(=O)c1cccc(C(F)(F)F)c1)CS(=O)C2 (centres unmarked),1.06%
8,COc1ccc(C(=O)Nc2ccc3cn[nH]c3c2)c(OC)c1,16.6%
9,Oc1[nH]c2ccccc2c1N=Nc1nncc2ccccc12,14.2%
10,COC(=O)NNC(=O)c1ccc(Cl)cc1Cl,14.6%
11,Cc1nc(C)n(CCNC(=O)c2ccco2)n1,22.3%
12,O=P(Nc1cccnc1)(Oc1ccccc1)Oc1ccccc1,9.77%
13,CCN(CC)S(=O)(=O)c1ccc(C)c(NC(=S)Nc2cccc(S(=O)(=O)N3CCCCCC3)c2)c1,4.26%
14,CC(=C/c1ccccc1)/C=N/NC(=O)CSc1nc(C)cc(C)n1,7.47%
15,O=C(Nc1ccc(NC(=O)C2CC2)cn1)c1ccccc1,15.2%
16,CC[C@@H](C)[C@H](CN[C@H](CNC)C(C)C)NC[C@@H](C)c1ccc(CC(C)C)cc1,2.83%
17,N=c1c(C(=O)NC2CCCCC2)cc2c(=O)n3ccccc3nc2n1Cc1ccco1,-59.1%
18,COc1ccc(/C=C2\CCCC3C2=NN(C(=O)c2ccco2)C3c2ccc(OC)c(OC)c2)cc1OC (centres unmarked),-3.14%
